# Test results as given in PubChem BioAssay AID1347434 (National Center for Advancing Translational Sciences (NCATS), 2020).
# Out of some 1,200 compounds screened, about 30 (2%) were called active. About 23% were inconclusive and are not listed. Calls come from the whole dose curve; as a rule, active = well fitted inhibition curve with a large enough effect; inconclusive = small, poorly fitted or top-dose-only effect; inactive = flat fitted curve, though single readings scatter. Some of the results follow.
# Biological target: Single-stranded DNA cytosine deaminase (Homo sapiens) (UniProt Q9GZX7)
# Experiment: Confirmatory qHTS assay for inhibitors of Activation Induced Cytidine Deaminase (AID): AID signals
# Settings: recombinant AID, FRET deamination/UDG coupled fluorescence, 4 h; series mostly up to 115 µM; activity, negative = inhibition: at the top concentration
# Description: Assay Provider (PI) Patricia Gearhart Ph.D. National Institute on Aging National Institute of Health (NIH), Bethesda, MD Assay Provider (PI) Rahul Kohli Ph.D. Perelman School of Medicine University of Pennsylvania, Philadelphia, PA Activation-Induced Deaminase (AID) is a cytosine deaminase which converts cytosine into uracil within stretches of ssDNA. The presence of uracil in DNA initiates a cascade of mutagenic DNA repair to introduce point mutations and DNA double strand breaks. Specific targeting of AID to the immunoglobulin heavy chain loci (Igh) promotes mutagenesis in the antibody variable region for somatic hypermutation (SHM) or switch regions leading to class switch recombination (CSR). However, AID also plays a role in accumulating unnecessary mutations across the genome. Mis-targeting of AID results in the initiation of tumor development and leads to greater drug resistance among cancer cells when continually expressed. To identify an AID inhibitor, a small molecule library will be screened in collaboration with NCATS core facility at NIH. To confirm biological function, inhibitors will be examined in an in vitro murine B-cell activation assay and subsequent secondary validation screens. Top molecules will be further screened to identify inhibitory efficacy against a wild type primary splenocytes assay. Using these approaches, we hope to identify a small molecule with great efficacy and low toxicity for use as a molecular probe to further characterize AID's intricacies, or even as a therapeutic. A FRET based analysis of cytosine deamination, was developed to identify potential inhibitors of AID catalytic activity. This screen has two signal output, Read 1 evaluates the AID inhibition response. The second readout (Read 2) evaluates UDG response and is uses as a counterscreen to exclude false positive inhibitors. Inhibition in AID and inactivity in the UDG signal is the desired outcome for this assay.
# PROTOCOL TABLE SEQUENCE No. (e.g., 1, 2, 3, etc.); […] (e.g., Cells, Incubation, Reagent, etc.); VALUE; DESCRIPTION 1a; Reagent; 3 uL; [4/3x] 1 uM AID/2.67 U/mL UDG 1b; Reagent; 3 uL; 2 U/mL UDG 1c; Reagent; 3 uL; 1 uM AID 2a; Compound; 46 nL; Follow-up plates (0.64 uM - 10 mM) 2b; Control; 46 nL; ATA (16.4 nM - 10 mM) 3; Time; 10 min; incubation at room temperature 4; Reagents; 1 uL; [4x] 250 nM DJC20 / 250 nM DJC23 [Substrate] 5; Time; 4 hr; incubation at room temperature 6; Reagent; 4 uL; [2x] 250 mM NaOH 7; Time; 15 sec; centrifuge at 1000 rpm 8; Time; 30 min; incubation at room temperature 9a; Detection; fluorescence (Read 1: AID); EnVision (PerkinElmer) plate reader, 540 excitation and 590 emission filters 9b; Detection; fluorescence (Read 2: UDG); EnVision (PerkinElmer) plate reader, 560 excitation and 665 emission filters NOTES (numbers refer to sequence above) 1a; Reagents were dispensed in a medium-binding black solid-bottom Greiner plates (789176F) using a BioRptr liquid dispenser. Dispense 3 uL of [4/3x] 1 uM AID (provided by Kohli lab) and [4/3x] 2 U/mL UDG (NEB M0280L) into columns 1, 2, 5 to 48. 1b; Dispense 3 uL of [4/3x] 2 U/mL UDG into column 3. 1c; Dispense 3 uL of [4/3x] 1 uM AID into column 4. 2a; Compound ([…] [uM]: 0.64; 3.2; 16; 80; 400; 2,000; 10,000; 20,000) double pin-transferred (Dip Factor = 2) using the Kalypsys (Wako USA) pintool equipped with a 1536 pinhead for a final concentration range of 7.32 nM - 114 uM. 2b; 10 mM Aurintricarboxylic Acid (Sigma A1895) (ATA, 8-point, n = 2, 1:2.5 dilution in column 2) double pin-transferred (Dip Factor = 2) using the Kalypsys (Wako USA) pintool equipped with a 1536 pinhead for a [final] range of 186 nM - 114 uM. 3; Room temperature incubation. 4; Dispense 1 uL of substrate mixture from the Kohli lab [4x] […] DJC20 and [4x] 250 nM DJC23 into columns 1 to 48 . 5; Room temperature incubation. 6; Dispense 4 uL of […] [2x] 250 mM NaOH into columns 1 to 48. 7; Centrifugation step to remove bubbles. […]
# % is set by controls: 0 for no effect and ±100 for the full control effect; potency is the fitted concentration of half-maximal effect.
# Sequence of UniProt Q9GZX7 (Q9GZX7 whole entry, looked up): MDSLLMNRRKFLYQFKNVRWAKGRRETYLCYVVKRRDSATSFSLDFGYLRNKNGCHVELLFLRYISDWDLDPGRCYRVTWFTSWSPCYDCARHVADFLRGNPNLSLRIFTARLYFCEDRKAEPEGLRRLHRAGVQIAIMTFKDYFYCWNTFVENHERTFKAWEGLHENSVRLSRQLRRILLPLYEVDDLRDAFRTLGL
SMILES,"activity, negative = inhibition",Potency
CCc1ccc(C(c2ccccc2)c2c(C)[nH]c3ccccc23)s1 (stereo unspecified),inactive: 27.8%,–
CCc1ccccc1NC(=O)CN(c1ccccc1OC)S(=O)(=O)c1ccc(C)cc1,inactive: -5.91%,–
CCn1cc(C(=O)NCCCOC)c(=O)c2cc(S(=O)(=O)N3CCc4ccccc4C3)ccc21,inactive: -12.3%,–
CC1=Nc2cc(C(=O)N3CCC(C)CC3)ccc2Sc2ccc(Cl)cc21,inactive: -5.99%,–
COc1ccccc1C(=O)Nc1ccc(C(=O)OCc2cc(=O)n3nc(C)sc3n2)cc1,inactive: 2.56%,–
Cc1cccc(CN2CCC(CNc3ncnc4onc(-c5ccc(Cl)cc5)c34)CC2)c1,inactive: -1.56%,–
Cc1ccccc1NC(=O)c1ccc(N(Cc2ccccc2)S(C)(=O)=O)cc1,inactive: 0.827%,–
Cc1ccc(NC(=O)c2c(NC(=O)C(F)(F)F)sc3c2CCCCC3)cc1,inactive: 5.53%,–
CCOc1ccc(-c2nc(SCC(=O)Nc3cc(F)ccc3F)n3[nH]c(=O)cc3n2)cc1,inactive: -19.6%,–
Cc1ccc(CSc2nc(-c3ccccc3C)nc3c2Cc2c(CO)cnc(C)c2O3)cc1,inactive: -24.9%,–
O=C(CC1N=C2c3ccccc3N=C(SCc3ccc(Cl)cc3)N2C1=O)NCCc1ccccc1 (stereo unspecified),inactive: 14.2%,–
CC(=O)N1CCc2c(sc3c2c(=O)n(CCc2ccccc2)c(=O)n3Cc2ccc(F)cc2)C1,inactive: -15.5%,–
CC(=O)N1CCc2c(sc3c2c(=O)n(Cc2ccccc2)c(=O)n3Cc2ccccc2F)C1,inactive: -17.2%,–
O=C(Nc1cccc(Cl)c1)C1CCCN(c2nn3cc(-c4ccc(F)cc4)nc3s2)C1 (stereo unspecified),inactive: -10.1%,–
CCOc1ccc(C(=O)c2cn(CC(=O)Nc3ccc4c(c3)OCO4)c3ccc(OC)cc3c2=O)cc1,inactive: -8.49%,–
COc1ccccc1CNC(=O)CSc1nc2nc(C)c(Cc3ccccc3Cl)c(C)n2n1,inactive: -14.1%,–
CCOc1ccc(CCNC(=O)c2nc(-c3cccc(F)c3)n3c2CCCCC3)cc1OCC,inactive: -12%,–
COc1ccc(C(=O)N(Cc2ccc(N(C)C)cc2)Cc2ccco2)cc1Cl,inactive: -0.171%,–
CCN(CC)C(=O)c1ccc2c(c1)N(Cc1ccc(C(F)(F)F)cc1)C(=O)c1ccccc1S2,inactive: -4.88%,–
CCOC(=O)C1CCCN(c2nc3c(S(=O)(=O)c4ccc(CC)cc4)nnn3c3ccc(Cl)cc23)C1 (stereo unspecified),inactive: -1.46%,–
CCOC(=O)c1cccc(NC(=O)c2oc3c(c2C)-c2[nH]ncc2CC3)c1,inactive: -11.2%,–
O=C(COc1ccccc1)NCc1ccc2c(c1)CCN2C(=O)c1ccc(F)cc1,inactive: -5.84%,–
Cc1cccc(CNC(=O)c2oc3c(c2C)-c2nn(Cc4ccccc4Cl)cc2CC3)c1,inactive: 17.7%,–

SMILES,"activity, negative = inhibition",Potency
Cc1ccc(Cl)cc1NC(=O)c1oc2c(c1C)-c1[nH]ncc1CC2,inactive: 28.2%,–
Cc1ccc(Nc2c(-c3ccc(C)cc3)nc3cnccn23)cc1,inactive: -6.72%,–
O=C(Cc1ccc(F)cc1)N1CCC(c2nc3c(nnn3Cc3ccc(Cl)cc3)c(=O)[nH]2)CC1,inactive: -5.41%,–
CCc1ccc(CNC(=O)c2ccc(CSc3nc4ccncc4n3Cc3ccccc3)cc2)cc1,inactive: 4.54%,–
C[N+](C)(CCCCCC[N+](C)(C)CCCN1C(=O)c2cccc3cccc(c23)C1=O)CCCN1C(=O)c2cccc3cccc(c23)C1=O,–,active: 5.01 µM
CC1(C)CC(=O)c2cc(C#N)c(=O)n(-c3ccc(Cl)cc3)c2C1,inactive: 7.89%,–
Cc1nc2c(C(=O)NCc3ccccc3)cnn2c(C)c1Cc1ccc(F)cc1,inactive: -26.7%,–
CCN1C(=O)c2ccccc2Sc2ccc(NC(=O)COc3ccc(Cl)cc3)cc21,inactive: -10.5%,–
CCN(CC)c1cc(C)c2cc(NC(=O)c3ccc(OC)c(OC)c3)ccc2n1,inactive: -2.1%,–
Cc1cc(Nc2cccc(C(F)(F)F)c2)nc2ccc(NC(=O)Cc3ccc(Cl)cc3)cc12,inactive: -8.67%,–
COc1ccc(Cl)cc1NC(=O)CSc1nc(=O)n(Cc2ccco2)c2c1CCC2,inactive: -18.2%,–
Cc1cc(C)cc(Nc2nc3cc(Cl)c(Cl)cc3nc2-n2nc(C)cc2C)c1,inactive: 10.3%,–
COc1cc2c(cc1OC)C(COc1ccc(F)cc1)N(C(=O)c1cccc(F)c1)CC2 (stereo unspecified),inactive: -9.9%,–
Cc1cc(C)cc(NC(=O)Cn2nnc(C(=O)NCc3ccco3)c2N)c1,inactive: -23.8%,–
CCOc1ccc(N(CC)S(=O)(=O)N2CCCC(C(=O)NCCc3ccccc3OC)C2)cc1 (stereo unspecified),inactive: -5.97%,–
Cc1cccc(N2CCN(C(=O)c3ccc4c(c3)c(C)c(C)n4C)CC2C)c1 (stereo unspecified),inactive: -17.3%,–
COc1ccccc1CN1CCC(CNC(=O)c2cnn(-c3ccc(C)c(C)c3)c2C2CCN(C(=O)OC(C)(C)C)CC2)CC1,inactive: -12.1%,–
CCc1ccc2oc(-c3cc(NC(=O)c4cc([N+](=O)[O-])ccc4N4CCOCC4)ccc3Cl)nc2c1,inactive: -4.08%,–
COc1ccc(-c2nc3c(c(SCC(=O)N4CCCCC4)n2)Cc2c(CO)cnc(C)c2O3)cc1,inactive: -0.171%,–
Cc1ccc(C)c(N2CCN(C(=O)c3cc(S(=O)(=O)N4CCCCCC4)cn3C)CC2)c1,inactive: -10.1%,–
O=C(NCc1cccs1)c1ccc(Cn2c(SCc3ccc(F)cc3)nc3cccnc32)cc1,inactive: -4.91%,–
CC1CCCCN1C(=O)CSc1nc2ccccc2nc1Cc1ccccc1 (stereo unspecified),inactive: -15.5%,–
CCCN(CCC)CCCNC(=O)c1cc2c(-c3ccc(Cl)cc3)nn(C)c2s1,inactive: -20.4%,–
